In article PMC7904734, “ORP/Osh mediate cross-talk between ER-plasma membrane contact site components and plasma membrane SNAREs” (Cellular and Molecular Life Sciences: CMLS, 2020):
Results are given in words; binding and its absence hold for the method and conditions named. Binding seen in cells or lysates may run through a third protein. Some binding calls cover weakened binding; strength is not graded here.

Amino acid sequences for entries named in this document (tags omitted).
UniProt P60880: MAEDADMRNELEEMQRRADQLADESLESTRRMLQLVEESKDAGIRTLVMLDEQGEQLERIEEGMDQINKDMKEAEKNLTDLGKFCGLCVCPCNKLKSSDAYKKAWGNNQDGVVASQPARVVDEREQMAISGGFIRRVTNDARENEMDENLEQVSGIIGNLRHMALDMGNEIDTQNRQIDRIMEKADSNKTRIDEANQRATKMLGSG
UniProt Q9H4L5: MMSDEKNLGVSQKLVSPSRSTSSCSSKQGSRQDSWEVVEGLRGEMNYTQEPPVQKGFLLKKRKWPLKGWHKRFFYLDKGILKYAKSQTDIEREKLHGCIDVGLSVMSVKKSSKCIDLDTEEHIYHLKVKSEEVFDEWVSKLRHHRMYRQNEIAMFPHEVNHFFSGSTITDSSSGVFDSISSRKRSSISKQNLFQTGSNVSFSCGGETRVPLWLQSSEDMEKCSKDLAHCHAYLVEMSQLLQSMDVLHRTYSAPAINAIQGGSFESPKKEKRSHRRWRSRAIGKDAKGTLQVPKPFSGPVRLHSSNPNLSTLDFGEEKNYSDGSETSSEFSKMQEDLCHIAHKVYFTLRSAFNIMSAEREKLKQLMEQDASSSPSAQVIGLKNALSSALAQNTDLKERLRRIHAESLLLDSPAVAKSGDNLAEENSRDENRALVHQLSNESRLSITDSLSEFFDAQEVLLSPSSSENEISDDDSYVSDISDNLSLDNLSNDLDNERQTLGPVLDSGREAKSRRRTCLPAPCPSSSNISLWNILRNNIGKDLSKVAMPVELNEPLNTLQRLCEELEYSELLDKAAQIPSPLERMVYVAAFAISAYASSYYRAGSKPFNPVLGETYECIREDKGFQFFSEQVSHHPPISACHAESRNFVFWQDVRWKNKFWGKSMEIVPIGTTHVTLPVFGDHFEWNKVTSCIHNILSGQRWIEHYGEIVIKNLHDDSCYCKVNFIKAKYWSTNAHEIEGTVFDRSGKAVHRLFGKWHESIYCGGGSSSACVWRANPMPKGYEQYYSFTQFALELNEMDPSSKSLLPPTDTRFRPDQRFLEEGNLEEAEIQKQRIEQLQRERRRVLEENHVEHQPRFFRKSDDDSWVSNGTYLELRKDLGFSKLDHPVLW
UniProt Q9H1P3: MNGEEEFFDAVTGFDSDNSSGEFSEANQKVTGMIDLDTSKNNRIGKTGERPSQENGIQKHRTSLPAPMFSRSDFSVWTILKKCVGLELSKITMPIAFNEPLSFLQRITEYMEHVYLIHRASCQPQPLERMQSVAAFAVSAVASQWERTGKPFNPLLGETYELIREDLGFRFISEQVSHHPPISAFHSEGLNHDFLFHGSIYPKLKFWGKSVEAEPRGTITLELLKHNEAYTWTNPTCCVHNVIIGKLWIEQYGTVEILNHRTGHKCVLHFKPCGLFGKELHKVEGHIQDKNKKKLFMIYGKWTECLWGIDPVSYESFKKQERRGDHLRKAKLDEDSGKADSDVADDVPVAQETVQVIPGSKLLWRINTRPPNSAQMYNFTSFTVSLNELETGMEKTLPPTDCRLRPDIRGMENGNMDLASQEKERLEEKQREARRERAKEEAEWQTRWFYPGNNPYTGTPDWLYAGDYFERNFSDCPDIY

These molecules were tested against Venus(C)·SNAP-25 (UniProt P60880) (assay: split reporter; BiFC of Venus(N) and Venus(C) fusions in transfected HEK293 cells, fixed after 24 h; co-transfection marker mCherry or mCherry·ORP).

binding | Molecule
no binding | Venus(N)·ORP3 (from UniProt Q9H4L5 1-887)
binds | Venus(N)·ORP2 (from UniProt Q9H1P3 1-480)
binds | Venus(N)·ORP5 (protein, UniProt Q9H0X9 1-879) MKEEAFLRRRFSLCPPSSTPQKVDPRKLTRNLLLSGDNELYPLSPGKDMEPNGPSLPRDEGPPTPSSATKVPPAEYRLCNGSDKECVSPTARVTKKETLKAQKENYRQEKKRATRQLLSALTDPSVVIMADSLKIRGTLKSWTKLWCVLKPGVLLIYKTPKVGQWVGTVLLHCCELIERPSKKDGFCFKLFHPLDQSVWAVKGPKGESVGSITQPLPSSYLIFRAASESDGRCWLDALELALRCSSLLRLGTCKPGRDGEPGTSPDASPSSLCGLPASATVHPDQDLFPLNGSSLENDAFSDKSERENPEESDTETQDHSRKTESGSDQSETPGAPVRRGTTYVEQVQEELGELGEASQVETVSEENKSLMWTLLKQLRPGMDLSRVVLPTFVLEPRSFLNKLSDYYYHADLLSRAAVEEDAYSRMKLVLRWYLSGFYKKPKGIKKPYNPILGETFRCCWFHPQTDSRTFYIAEQVSHHPPVSAFHVSNRKDGFCISGSITAKSRFYGNSLSALLDGKATLTFLNRAEDYTLTMPYAHCKGILYGTMTLELGGKVTIECAKNNFQAQLEFKLKPFFGGSTSINQISGKITSGEEVLASLSGHWDRDVFIKEEGSGSSALFWTPSGEVRRQRLRQHTVPLEEQTELESERLWQHVTRAISKGDQHRATQEKFALEEAQRQRARERQESLMPWKPQLFHLDPITQEWHYRYEDHSPWDPLKDIAQFEQDGILRTLQQEAVARQTTFLGSPGPRHERSGPDQRLRKASDQPSGHSQATESSGSTPESCPELSDEEQDGDFVPGGESPCPRCRKEARRLQALHEAILSIREAQQELHRHLSAMLSSTARAAQAPTPGLLQSPRSWFLLCVFLACQLFINHILK
binds | Venus(N)·ORP1L (protein, UniProt Q9BXW6-1 1-950) MNTEAEQQLLHHARNGNAEEVRQLLETMARNEVIADINCKGRSKSNLGWTPLHLACYFGHRQVVQDLLKAGAEVNVLNDMGDTPLHRAAFTGRKELVMLLLEYNADTTIVNGSGQTAKEVTHAEEIRSMLEAVERTQQRKLEELLLAAAREGKTTELTALLNRPNPPDVNCSDQLGNTPLHCAAYRAHKQCALKLLRSGADPNLKNKNDQKPLDLAQGAEMKHILVGNKVIYKALKRYEGPLWKSSRFFGWRLFWVVLEHGVLSWYRKQPDAVHNIYRQGCKHLTQAVCTVKSTDSCLFFIKCFDDTIHGFRVPKNSLQQSREDWLEAIEEHSAYSTHYCSQDQLTDEEEEDTVSAADLKKSLEKAQSCQQRLDREISNFLKMIKECDMAKEMLPSFLQKVEVVSEASRETCVALTDCLNLFTKQEGVRNFKLEQEQEKNKILSEALETLATEHHELEQSLVKGSPPASILSEDEFYDALSDSESERSLSRLEAVTARSFEEEGEHLGSRKHRMSEEKDCGGGDALSNGIKKHRTSLPSPMFSRNDFSIWSILRKCIGMELSKITMPVIFNEPLSFLQRLTEYMEHTYLIHKASSLSDPVERMQCVAAFAVSAVASQWERTGKPFNPLLGETYELVRDDLGFRLISEQVSHHPPISAFHAEGLNNDFIFHGSIYPKLKFWGKSVEAEPKGTITLELLEHNEAYTWTNPTCCVHNIIVGKLWIEQYGNVEIINHKTGDKCVLNFKPCGLFGKELHKVEGYIQDKSKKKLCALYGKWTECLYSVDPATFDAYKKNDKKNTEEKKNSKQMSTSEELDEMPVPDSESVFIIPGSVLLWRIAPRPPNSAQMYNFTSFAMVLNEVDKDMESVIPKTDCRLRPDIRAMENGEIDQASEEKKRLEEKQRAARKNRSKSEEDWKTRWFHQGPNPYNGAQDWIYSGSYWDRNYFNLPDIY
binds | Venus(N)·ORP4L (protein, UniProt Q969R2 1-916) MGKAAAPSRGGGCGGRSRGLSSLFTVVPCLSCHTAAPGMSASTSGSGPEPKPQPQPVPEPERGPLSEQVSEAVSEAVPRSEPVSETTSEPEPGAGQPSELLQGSRPGSESSSGVGAGPFTKAASEPLSRAVGSATFLRPESGSLPALKPLPLLRPGQAKTPLGVPMSGTGTTSSAPLALLPLDSFEGWLLKWTNYLKGYQRRWFVLGNGLLSYYRNQGEMAHTCRGTINLSTAHIDTEDSCGILLTSGARSYHLKASSEVDRQQWITALELAKAKAVRVMNTHSDDSGDDDEATTPADKSELHHTLKNLSLKLDDLSTCNDLIAKHGAALQRSLTELDGLKIPSESGEKLKVVNERATLFRITSNAMINACRDFLELAEIHSRKWQRALQYEQEQRVHLEETIEQLAKQHNSLERAFHSAPGRPANPSKSFIEGSLLTPKGEDSEEDEDTEYFDAMEDSTSFITVITEAKEDSRKAEGSTGTSSVDWSSADNVLDGASLVPKGSSKVKRRVRIPNKPNYSLNLWSIMKNCIGRELSRIPMPVNFNEPLSMLQRLTEDLEYHHLLDKAVHCTSSVEQMCLVAAFSVSSYSTTVHRIAKPFNPMLGETFELDRLDDMGLRSLCEQVSHHPPSAAHYVFSKHGWSLWQEITISSKFRGKYISIMPLGAIHLEFQASGNHYVWRKSTSTVHNIIVGKLWIDQSGDIEIVNHKTNDRCQLKFLPYSYFSKEAARKVTGVVSDSQGKAHYVLSGSWDEQMECSKVMHSSPSSPSSDGKQKTVYQTLSAKLLWKKYPLPENAENMYYFSELALTLNEHEEGVAPTDSRLRPDQRLMEKGRWDEANTEKQRLEEKQRLSRRRRLEACGPGSSCSSEEEKEADAYTPLWFEKRLDPLTGEMACVYKGGYWEAKEKQDWHMCPNIF
binds | Venus(N)·OSBP (protein, UniProt P22059 1-807) MAATELRGVVGPGPAAIAALGGGGAGPPVVGGGGGRGDAGPGSGAASGTVVAAAAGGPGPGAGGVAAAGPAPAPPTGGSGGSGAGGSGSAREGWLFKWTNYIKGYQRRWFVLSNGLLSYYRSKAEMRHTCRGTINLATANITVEDSCNFIISNGGAQTYHLKASSEVERQRWVTALELAKAKAVKMLAESDESGDEESVSQTDKTELQNTLRTLSSKVEDLSTCNDLIAKHGTALQRSLSELESLKLPAESNEKIKQVNERATLFRITSNAMINACRDFLMLAQTHSKKWQKSLQYERDQRIRLEETLEQLAKQHNHLERAFRGATVLPANTPGNVGSGKDQCCSGKGDMSDEDDENEFFDAPEIITMPENLGHKRTGSNISGASSDISLDEQYKHQLEETKKEKRTRIPYKPNYSLNLWSIMKNCIGKELSKIPMPVNFNEPLSMLQRLTEDLEYHELLDRAAKCENSLEQLCYVAAFTVSSYSTTVFRTSKPFNPLLGETFELDRLEENGYRSLCEQVSHHPPAAAHHAESKNGWTLRQEIKITSKFRGKYLSIMPLGTIHCIFHATGHHYTWKKVTTTVHNIIVGKLWIDQSGEIDIVNHKTGDKCNLKFVPYSYFSRDVARKVTGEVTDPSGKVHFALLGTWDEKMECFKVQPVIGENGGDARQRGHEAEESRVMLWKRNPLPKNAENMYYFSELALTLNAWESGTAPTDSRLRPDQRLMENGRWDEANAEKQRLEEKQRLSRKKREAEAMKATEDGTPYDPYKALWFERKKDPVTKELTHIYRGEYWECKEKQDWSSCPDIF
